The record followed here is publication PMC5892938.

Some of the results follow. At the low end of the ranking the order means little.

The test has as its target GST-SBP-SLBP (stem-loop binding protein) (UniProt Q14493). Nature of the test: targeted RNA Bind-n-Seq.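 Note: DESeq read counts versus GST-SBP nonspecific binding control pulldown.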 Conditions: RBNS binding buffer: 25 mM Tris pH 7.5, 150 mM KCl, 3 mM MgCl2, 0.1% Tween, 0.5 mg/mL BSA, 1 mM DTT; 27 nM protein, 750 pM RNA pool; temperature not stated; high values mean tight binding.
Take “GGUCACGUCUCAAUCAACUCUUUCUCAGGAGUUUCCUCCUGCAUUCUCAACAGCUCGCAGUCAAG”: the binding signal (log2 fold change) was determined as 0.0551.

As to “GGUCACGUCUCAAUCAACUCAAUUUCCAGGGAAAGCCCUGGUUUAUUCAACAGCUCGCAGUCAAG”, the binding signal (log2 fold change) amounted to 0.0401.

On to “GGUCACGUCUCAAUCAACUCAACUUCCAGGGAAAUCCCUGGUUUACUCAACAGCUCGCAGUCAAG”, for which the binding signal (log2 fold change) was -0.0814.

“GGUCACGUCUCAAUCAACUCUACUCCCAGGGAAAGCCCUGGUUUACUCAACAGCUCGCAGUCAAG”: the binding signal (log2 fold change) was -0.317.

Turning to “GGUCACGUCUCAAUCAACUCAAUCUCCAGGGAAACCCCUGGCAUAUUCAACAGCUCGCAGUCAAG”, the binding signal (log2 fold change) stood at 0.255.

Take “GGUCACGUCUCAAUCAACUCAUCGCCAGGAGUUUUCUCCUGUAAUCUCAACAGCUCGCAGUCAAG”: the binding signal (log2 fold change) was -0.147.

Regarding “GGUCACGUCUCAAUCAACUCAAGUCCCAGGGAAAUCCCUGGCUAAUUCAACAGCUCGCAGUCAAG”, the binding signal (log2 fold change) is -0.32.

On to “GGUCACGUCUCAAUCAACUCUAUCCCCAGGGAAAACCCUGGUUUACUCAACAGCUCGCAGUCAAG”, for which the binding signal (log2 fold change) came to 0.0972.

With “GGUCACGUCUCAAUCAACUCUACUCCCAGGGAAAACCCUGGUAAAUUCAACAGCUCGCAGUCAAG”, the binding signal (log2 fold change) was -0.0175.

For “GGUCACGUCUCAAUCAACUCAUCUCCAGGAGUUUUCUCCUGUUAAGUCAACAGCUCGCAGUCAAG”, the binding signal (log2 fold change) was -0.176.

For the sequence “GGUCACGUCUCAAUCAACUCAUCCUCAGGAGUUUACUCCUGCAUAUUCAACAGCUCGCAGUCAAG”, the binding signal (log2 fold change) came out at 0.244.

With “GGUCACGUCUCAAUCAACUCUAUUCCAGGAGUUUUCUCCUGUAAACUCAACAGCUCGCAGUCAAG”, the binding signal (log2 fold change) is -0.191.

As for “GGUCACGUCUCAAUCAACUCAUUUCCCAGGGAAAUCCCUGGCAUUCUCAACAGCUCGCAGUCAAG”, the binding signal (log2 fold change) was determined as 0.0458.

For the sequence “GGUCACGUCUCAAUCAACUCAUUUUCAGGAGUUUACUCCUGCUUAGUCAACAGCUCGCAGUCAAG”, the binding signal (log2 fold change) was 0.0324.

With “GGUCACGUCUCAAUCAACUCAAUCUCAGGAGUUUCCUCCUGUUUACUCAACAGCUCGCAGUCAAG”, the binding signal (log2 fold change) is 0.14.

With “GGUCACGUCUCAAUCAACUCAUCCUCAGGAGUUUUCUCCUGUUAAGUCAACAGCUCGCAGUCAAG”, the binding signal (log2 fold change) turned out to be 0.227.

Consider “GGUCACGUCUCAAUCAACUCUUUUCCAGGAGUUUACUCCUGCUAAUUCAACAGCUCGCAGUCAAG”, for which the binding signal (log2 fold change) was found to be 0.122.

Turning to “GGUCACGUCUCAAUCAACUCUCCCGAGGGGGGGAAAACCCCUUUACCCUCAACAUCAACAGCUCGCAGUCAAG”, the binding signal (log2 fold change) is -0.386.

“GGUCACGUCUCAAUCAACUCAAAAGAGGGGGGGAAAACCCCUUUGCCCUCAACUUCAACAGCUCGCAGUCAAG”: the binding signal (log2 fold change) is -0.159.

Regarding “GGUCACGUCUCAAUCAACUCUCUAGAGGGGGGGAAAACCCCUUUGCCCUCCAAUUCAACAGCUCGCAGUCAAG”, the binding signal (log2 fold change) was found to be 0.201.

Take “GGUCACGUCUCAAUCAACUCACACGAGGGGGGGAAAACCCCUUUACCCUCUAACUCAACAGCUCGCAGUCAAG”: the binding signal (log2 fold change) came to 0.27.

On to “GGUCACGUCUCAAUCAACUCAACGCCAGGAGUUUCCUCCUGUUAUCUCAACAGCUCGCAGUCAAG”, for which the binding signal (log2 fold change) came to 0.0878.

With “GGUCACGUCUCAAUCAACUCAAGUCCCAGGGAAAACCCUGGCAAUCUCAACAGCUCGCAGUCAAG”, the binding signal (log2 fold change) is -0.0349.

Consider “GGUCACGUCUCAAUCAACUCUUUCCCCAGGGAAAUCCCUGGCAAUCUCAACAGCUCGCAGUCAAG”, for which the binding signal (log2 fold change) was -0.256.

As to “GGUCACGUCUCAAUCAACUCUUUUUCAGGAGUUUACUCCUGCAAAUUCAACAGCUCGCAGUCAAG”, the binding signal (log2 fold change) is -0.145.

On to “GGUCACGUCUCAAUCAACUCACUAGAGGGGGGGAAAACCCCUUUACCCUCAUCGUCAACAGCUCGCAGUCAAG”, for which the binding signal (log2 fold change) was found to be 0.311.

For the sequence “GGUCACGUCUCAAUCAACUCAAUUCCCAGGGAAAGCCCUGGCAAACUCAACAGCUCGCAGUCAAG”, the binding signal (log2 fold change) is -0.0904.

With “GGUCACGUCUCAAUCAACUCAUCUCCAGGAGUUUUCUCCUGCUUACUCAACAGCUCGCAGUCAAG”, the binding signal (log2 fold change) worked out at 0.253.

Take “GGUCACGUCUCAAUCAACUCUAUGUCAGGAGUUUACUCCUGUUUUUUCAACAGCUCGCAGUCAAG”: the binding signal (log2 fold change) was -0.0252.

For “GGUCACGUCUCAAUCAACUCAAUCCCAGGAGUUUGCUCCUGCAUAUUCAACAGCUCGCAGUCAAG”, the binding signal (log2 fold change) came to 0.355.

As for “GGUCACGUCUCAAUCAACUCUAAAGAGGGGGGGAAAACCCCUUUACCCUCACACUCAACAGCUCGCAGUCAAG”, the binding signal (log2 fold change) is -0.058.

Regarding “GGUCACGUCUCAAUCAACUCAUUUCCCAGGGAAAACCCUGGUUUACUCAACAGCUCGCAGUCAAG”, the binding signal (log2 fold change) is -0.0903.

Regarding “GGUCACGUCUCAAUCAACUCUUCCCCAGGAGUUUCCUCCUGUUUUUUCAACAGCUCGCAGUCAAG”, the binding signal (log2 fold change) came out at 0.00201.

With “GGUCACGUCUCAAUCAACUCUCUAGAGGGGGGGAAAACCCCUUUACCCUCCAUGUCAACAGCUCGCAGUCAAG”, the binding signal (log2 fold change) is -0.298.

Take “GGUCACGUCUCAAUCAACUCAAUCUCAGGAGUUUUCUCCUGUAAAUUCAACAGCUCGCAGUCAAG”: the binding signal (log2 fold change) was -0.217.

In the case of “GGUCACGUCUCAAUCAACUCUUUCCCCAGGGAAACCCCUGGUAAUUUCAACAGCUCGCAGUCAAG”, the binding signal (log2 fold change) amounted to 0.0986.

On to “GGUCACGUCUCAAUCAACUCUUCCUCAGGAGUUUACUCCUGUAAAUUCAACAGCUCGCAGUCAAG”, for which the binding signal (log2 fold change) is -0.144.
